Test results taken from patent US20250051471A1, “Anti-Abcb1 Antibodies” (WILLIAM ROBERT ARATHOON LIVING TRUST DATED AUGUST 29, 2016, priority 2021, published 2025).

How the values were obtained:
N6/ADR cells [1] = experiment: Cytotoxicity screening assay (vincristine-induced cytotoxicity); settings: N6ADR drug resistant cell-based leukemia assay
Experimental: The effect of antibodies on vincristine-induced cytotoxicity was evaluated using the drug-resistant N6/ADR cell line. In this assay, vincristine was serially diluted, while the ABCB1 x CD47 BsAbs (or isotype control antibodies) were used at a uniform, saturating concentration. The assay readout was vincristine IC50 in the presence or absence of antibodies. Inhibition of ABCB1 should result in a lower vincristine IC50.
The assay was performed as follows: cells were plated in 0.05 mL of assay media (RPMI-1640+10% FBS) at 5000 cells/well in white, flat bottom 96-well tissue culture plates and incubated overnight at 37° C., 5% CO2. The following day vincristine was prepared at 2X final assay concentration by 1:5 or 1:10 serial dilutions in screening assay media containing test antibodies or control antibodies at 100 μg/mL (2X final concentration), or valspodar, a small molecule ABCB1 inhibitor, at 7 pM (2X final concentration). An equivalent volume (0.05 mL) of the vincristine/antibody mixture was added to the N6/ADR cells and incubated at 37° C., in 5% CO2.
After 72 hours, plates were removed from the incubator and allowed to equilibrate to room temperature. Viability was assessed using the Promega® CellTiter-Glo® Luminescent Cell Viability Assay according to the manufacturer's recommended protocol.

DX5 cells = experiment: FACS binding to DX5 WT, CD47 KO and ABCB1 KO cells; format: cell-based, human; settings: for binding to ABCB1 and CD47 antigens expressed on cancer cell surface: DX5 WT, CD47 KO and ABCB1 KO cells
Text: The mono arm antibodies each have only one binding valency for the target. The wild-type DX5 (DX5 WT) cells express both ABCB1 and CD47 antigens.
The mono arm antibodies only have one binding valency for the target.
The mono arm antibodies each have only one binding valency for the target.
FIGS. 19A-19C show the binding of bispecific humanized ABCB1XCD47 antibodies KB1-1418, KB1-1419 and KB1-1420 to wild-type Adriamycin-resistant DX5 cells, CD4 KO DX5 cells and ABCB1 KO (B1 KO) DX5 cells.

human Red Blood Cells = experiment: Antibody binding to human red blood cells by flow cytometry; format: cell-based
Experimental: (§1) Antibody binding to human and cynomolgus RBC was assessed by flow cytometry. Normal human and cynomolgus whole blood was obtained from BiolVT. RBC were prepared by centrifugation of whole blood aliquots (0.5 mL) for 5 min at 500xg. Supernatant (plasma) was removed, and RBC washed 3 times in D-PBS+1 mM EDTA. After the final wash, the RBC were resuspended in D-PBS+1 mM EDTA to a final volume of 0.5 mL. Washed RBC were then diluted in flow cytometry buffer (D-PBS+2% FBS+0.05% sodium azide) to 2% and dispensed at […] into 96-well plates. An equivalent volume ([…]) of antibody serially diluted in flow cytometry buffer to 2× final was added to the RBC, and the mixture incubated for 1 hour at room temperature. Next, RBC were washed 3 times with flow cytometry buffer and resuspended in 50 μL of Alexa Fluor®647 conjugated Fab fragment goat anti-human IgG diluted 1:200 in flow cytometry buffer. After 20 minutes at room temperature RBC were washed twice, resuspended in flow cytometry buffer and analyzed using an Invitrogen™ Attune™ NXT flow cytometer. […] Left panel, RBC are gated (R1) based on forward and side scatter. Middle panel, a second gate (R2) is applied to eliminate any remaining doublets or aggregates. Right panel, fluorescence of the R2 gated cells is assessed and a final gate (R3) is set using unstained RBC. Cells falling in the R3 gate are defined as “positive” for binding and reported as the percent (of R2 gated cells) that fall in the R3 gate. The results are presented at percent positive which represents the percent of RBC in the R3 gate.

[2] = test system: cynomolgus Red Blood Cells; experiment: Antibody binding to cynomolgus red blood cells by flow cytometry; format: cell-based; settings: percent of RBC in the R3 gate
Experimental: as §1

N6/ADR cells [3] = experiment: Cytotoxicity potency assay (antibody titrated, vincristine constant); format: cell-based
Experimental: The relative potency of the samples was evaluated using N6/ADR cells. These cells expressed both ABCB1 and CD47 with the expression of CD47 ˜40-fold higher than ABCB1 as determined by staining with R-phycoerythrin (R-PE) conjugated, commercially available antibodies against ABCB1 (UIC2, Biolegend) and CD47 (CC2C6, Biolegend). This assay also examined the effect of antibodies on vincristine-induced cytotoxicity using the drug-resistant cell line, N6/ADR. However, in this assay format the concentration of vincristine was held constant while the ABCB1 x CD47 BsAbs (or isotype control antibodies) were serially diluted. This assay measured antibody IC50. Lower IC50 meant higher antibody potency.
The potency assay was performed as follows. Cells were plated in 0.05 mL of assay media at 5000 cells/well in white flat bottom 96-well tissue culture plates and incubated overnight at 37° C., 5% CO2. […] An equivalent volume (0.05 mL) diluted antibody/vincristine mixture was transferred to the N6/ADR cells and incubated at 37° C., in 5% CO^2. After 72 hours, plates were removed from the incubator and allowed to equilibrate to room temperature. Viability was assessed using the Promega® CellTiter-Glo® Luminescent Cell Viability Assay according to the manufacturer's recommended protocol.

| Molecule | in vitro potency (cell killing) (N6/ADR cells [1]) | binding to ABCB1 and CD47 antigens expressed on cancer cell surface (DX5 cells) | binding to the ABCB1 antigen, compared among light chains (DX5 cells; wild-type and knock out DX5 cells) | Binding to human Red Blood Cells % positive D834 (human Red Blood Cells; donor D834, percent of RBC in the R3 gate) | Binding to human Red Blood Cells % positive D835 (human Red Blood Cells; donor D835, percent of RBC in the R3 gate) | Binding to human Red Blood Cells % positive D836 (human Red Blood Cells; donor D836, percent of RBC in the R3 gate) | Binding to human Red Blood Cells % positive D837 (human Red Blood Cells; donor D837, percent of RBC in the R3 gate) | binding to red blood cells (in words) (human Red Blood Cells; species not given) | Binding to cynomolgus Red Blood Cells % Positive Cy744 ([2]; donor Cy744) | Binding to cynomolgus Red Blood Cells % Positive Cy745 ([2]; donor Cy745) | Binding to cynomolgus Red Blood Cells % Positive Cy746 ([2]; donor Cy746) | Binding to cynomolgus Red Blood Cells % Positive Cy747 ([2]; donor Cy747) | potency increasing cytotoxicity (N6/ADR cells [3]) |
| --- | --- | --- | --- | --- | --- | --- | --- | --- | --- | --- | --- | --- | --- |
| KB1-1418: humanized ABCB1XCD47 bispecific antibody, HIR2/KbR1 Fc, MRK16v4b common light chain (antibody, left off: a dimerising Fc or GST, humanized ABCB1XCD47 bispecific antibody, HIR2/KbR1 Fc, MRK16v4b common light chain) heavy 1: EVQLVESGGVVVQPGGSLRLSCAASGFTFSRYTMSWVRQAPGKGLEWVATISSGGGNTYYPDSVKGRFTVSRDNSKNSLYLQMNSLRTEDTALYYCARYGAGDAWFAYWGQGTLVTVSSASTKGPSVFPLAPSSKSTSGGTAALGCLVKDYFPEPVTVSWNSGALTSGVHTFPAVLQSSGLYSLSSVVTVPSSSLGTQTYICNVNHKPSNTKVDKRVEPKSCDKTHTCPPCPAPELLGGPSVFLFPPKPKDTLMISRTPEVTCVVVDVSHEDPEVKFNWYVDGVEVHNAKTKPREEQYNSTYRVVSVLTVLHQDWLNGKEYKCKVSNKALPAPIEKTISKAKGQPREPQVCTLPPSREEMTKNQVSLSCAVKGFYPSDIAVEWESNGQPENNYKTTPPVLDSDGSFVLVSKLTVDKSRWQQGNVFSCSVMHEALHNHYTQKSLSLSPG heavy 2: QVQLVQSGAEVKKPGASVKVSCKASGYTFTNYNMHWVRQAPGQRLEWMGTIYPGNDDTSYNQKFKDRVTITADTSASTAYMELSSLRSEDTAVYYCARGGYRAMDYWGQGTLVTVSSASTKGPSVFPLAPSSKSTSGGTAALGCLVKDYFPEPVTVSWNSGALTSGVHTFPAVLQSSGLYSLSSVVTVPSSSLGTQTYICNVNHKPSNTKVDKRV[human IgG1 Fc with changes omitted] light: DIVMTQTPLSSPVTLGQPASISCRSSQSIVHSTGNTYLEWYQQKPGQPPRLLIYKISNRFSGVPDRFSGSGSGTDFTLKISRVEAEDVGVYYCFQASHFPRTFGQGTKLEIK | significant in vitro potency | specifically bind | binds better to the ABCB1 antigen | – | – | – | – | – | – | – | – | – | – |
| Fc/KT14/B1.89v1 huL1(KV2) hmz LC: humanized anti-CD47 mono arm antibody with B1.89v1 huL1(KV2) light chain (antibody, left off: another chain or arm of the molecule, humanized anti-CD47 mono arm antibody with B1.89v1 huL1(KV2) light chain) heavy: QVQLVQSGAEVKKPGASVKVSCKASGYTFTNYNMHWVRQAPGQRLEWMGTIYPGNDDTSYNQKFKDRVTITADTSASTAYMELSSLRSEDTAVYYCARGGYRAMDYWGQGTLVTVSSASTKGPSVFPLAPSSKSTSGGTAALGCLVKDYFPEPVTVSWNSGALTSGVHTFPAVLQSSGLYSLSSVVTVPSSSLGTQTYICNVNHKPSNTKVDKRV[human IgG1 Fc with changes omitted] light: DIVMTQSPLSLPVTPGEPASISCRSSQTIVHSNGNTYLEWYLQKPGQSPQLLIYKVSKRFSGVPDRFSGSGSGTDFTLKISRVEAEDVGVYYCFQASHFPRTFGQGTKLEIKRTVAAPSVFIFPPSDEQLKSGTASVVCLLNNFYPREAKVQWKVDNALQSGNSQESVTEQDSKDSTYSLSSTLTLSKADYEKHKVYACEVTHQGLSSPVTKSFNRGEC | – | – | – | 0.4% | 0.1% | 0.2% | 0.3% | No binding | 0.9% | 1.7% | 5.0% | 18.8% | no effect |
| KB1-1419: humanized ABCB1XCD47 bispecific antibody, HIR2/KbR1 Fc, B1VL6/CDR3v2a common light chain (antibody) heavy 1: EVQLVESGGVVVQPGGSLRLSCAASGFTFSRYTMSWVRQAPGKGLEWVATISSGGGNTYYPDSVKGRFTVSRDNSKNSLYLQMNSLRTEDTALYYCARYGAGDAWFAYWGQGTLVTVSSASTKGPSVFPLAPSSKSTSGGTAALGCLVKDYFPEPVTVSWNSGALTSGVHTFPAVLQSSGLYSLSSVVTVPSSSLGTQTYICNVNHKPSNTKVDKRVEPKSCDKTHTCPPCPAPELLGGPSVFLFPPKPKDTLMISRTPEVTCVVVDVSHEDPEVKFNWYVDGVEVHNAKTKPREEQYNSTYRVVSVLTVLHQDWLNGKEYKCKVSNKALPAPIEKTISKAKGQPREPQVCTLPPSREEMTKNQVSLSCAVKGFYPSDIAVEWESNGQPENNYKTTPPVLDSDGSFVLVSKLTVDKSRWQQGNVFSCSVMHEALHNHYTQKSLSLSPG heavy 2: QVQLVQSGAEVKKPGASVKVSCKASGYTFTNYNMHWVRQAPGQRLEWMGTIYPGNDDTSYNQKFKDRVTITADTSASTAYMELSSLRSEDTAVYYCARGGYRAMDYWGQGTLVTVSSASTKGPSVFPLAPSSKSTSGGTAALGCLVKDYFPEPVTVSWNSGALTSGVHTFPAVLQSSGLYSLSSVVTVPSSSLGTQTYICNVNHKPSNTKVDKRV[human IgG1 Fc with changes omitted] light: DIVMTQSPLSLPVTPGEPASISCRSSQSLVHSNGNTYLEWYLQKPGQSPQLLIYKVSNRFSGVPDRFSGSGSGTDFTLKISRVEAEDVGVYYCFQGSHFPRTFGQGTKLEIKRTVAAPSVFIFPPSDEQLKSGTASVVCLLNNFYPREAKVQWKVDNALQSGNSQESVTEQDSKDSTYSLSSTLTLSKADYEKHKVYACEVTHQGLSSPVTKSFNRGEC | significant in vitro potency | specifically bind | – | – | – | – | – | – | – | – | – | – | – |
